Assay results from article PMC7819943, “Rice protein-binding microarrays: a tool to detect cis-acting elements near promoter regions in rice”.
This is one part of the list.

Each sequence was assayed against T1, OsWOX13 (Oryza sativa, UniProt Q5QMM3 1-267) (assay: protein-binding microarray (RPBM); PBS, 2% BSA, 51.3 ng/ul salmon testes DNA, 50 uM zinc acetate, 200 nM TF, 25 C, 1 h; high values mean tight binding). Details: protein: recombinant; tags: N-terminal polyhistidine and DsRed monomer fusion (pET32a); label: CyDye5-dUTP incorporated in the synthesized complementary strand; 3' TTTTT single-stranded linker to array surface; dsDNA, one strand shown.
T1 sequence: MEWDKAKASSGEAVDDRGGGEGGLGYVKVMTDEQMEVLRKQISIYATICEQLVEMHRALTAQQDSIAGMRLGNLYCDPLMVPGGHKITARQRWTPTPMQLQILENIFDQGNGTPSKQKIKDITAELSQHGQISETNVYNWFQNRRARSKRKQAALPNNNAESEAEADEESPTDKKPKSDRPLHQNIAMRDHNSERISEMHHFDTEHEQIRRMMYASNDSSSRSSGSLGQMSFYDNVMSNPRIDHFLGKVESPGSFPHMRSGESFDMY
Summary of the method: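 An Axon 4000B scanner gave the binding signal as per-feature fluorescence intensity in arbitrary units. This followed washing of a custom Agilent array that had been incubated for 1 h at 25 °C with 200 nM protein in PBS, 2% BSA, salmon testes DNA and 50 µM zinc acetate. The proteins were transcription factors fused at the N-terminus to polyhistidine and DsRed, expressed in E. coli BL21-CodonPlus and purified on Ni–NTA.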

| Sequence | binding signal |
| --- | --- |
| AGTTTGATCAAATTTATAGAAAATATATTATTATTTTCAACGGAGTCACCTAGTGCAG | 5640 fluorescence intensity (a.u.) |
| TAGATTGACTATAGATGAATTGGAGCTAGTAATGGTCAATCGGAGTCACCTAGTGCAG | 25200 fluorescence intensity (a.u.) |
| TTATAGATTATAATAATCTATCGTAATAATCTACTTATTTCGGAGTCACCTAGTGCAG | 8120 fluorescence intensity (a.u.) |
| CCATAATTACAGTCTGAAGATTTTATGCAGTCCAATAACCCGGAGTCACCTAGTGCAG | 23300 fluorescence intensity (a.u.) |
| CCTGATTGACAGAAGGAGATACCCCAACAACAAAAGAATGCGGAGTCACCTAGTGCAG | 48800 fluorescence intensity (a.u.) |
| CTTCACTCAATTGGACAGTCTACTGGTGACATCGATGAACCGGAGTCACCTAGTGCAG | 4340 fluorescence intensity (a.u.) |
| GTTTGCACTAATTTGACACGAACACTTATTTCACACGTGGCGGAGTCACCTAGTGCAG | 9930 fluorescence intensity (a.u.) |
| ATTCATTCATTCAAATTACAGCATATATGAGTCATACAACCGGAGTCACCTAGTGCAG | 3360 fluorescence intensity (a.u.) |
| ATACATTAATTGATTTAGGTGGATTTATCATCAGAGCCACCGGAGTCACCTAGTGCAG | 31200 fluorescence intensity (a.u.) |
| ATCATAATGTAAACATGAATGTAATTTGCTTGCCCTATGCCGGAGTCACCTAGTGCAG | 10100 fluorescence intensity (a.u.) |
| ACAACATTCCAATTGATTAATGTATGGCTGATAACCTATACGGAGTCACCTAGTGCAG | 8740 fluorescence intensity (a.u.) |
| AGTGATTAGCCGGATGACGAAGCTTCGTGCGGACGCGGCCCGGAGTCACCTAGTGCAG | 34500 fluorescence intensity (a.u.) |
| GCAGGATTGGAATTCCCTTCCCCTTCTGAAACCAGCATAACGGAGTCACCTAGTGCAG | 9320 fluorescence intensity (a.u.) |
| TTAATTGTATTAATATTATATGGTCTAGTTAAGGTGAAATCGGAGTCACCTAGTGCAG | 3350 fluorescence intensity (a.u.) |
| TCCAAACCCCAATCTTGATTTGTCATCTGGCCGGTTACCTCGGAGTCACCTAGTGCAG | 5700 fluorescence intensity (a.u.) |
| CATCATCAAATTAATAGATAGACAGAAAGTATATATCGACCGGAGTCACCTAGTGCAG | 34300 fluorescence intensity (a.u.) |
| CACAATTGGAATTTACTAAACCGGGTCAAGAAAGTTGAGACGGAGTCACCTAGTGCAG | 8910 fluorescence intensity (a.u.) |
| AGTTGGTGATTGAATATGCAGTTATCATGTCATGCATAATCGGAGTCACCTAGTGCAG | 32500 fluorescence intensity (a.u.) |
| TTATCTATTATATAATTTATTATTATTATTTTGTCGCCTCCGGAGTCACCTAGTGCAG | 9180 fluorescence intensity (a.u.) |
| ACATATCTTATCTTAAGATTGACGAAGTCACCACGACTCCCGGAGTCACCTAGTGCAG | 6460 fluorescence intensity (a.u.) |
| ATAATTGATTCCTGCTTCTTGAAAACAATTTGTTTGCTTTCGGAGTCACCTAGTGCAG | 47000 fluorescence intensity (a.u.) |

| Sequence | binding signal |
| --- | --- |
| ATTGGATAAATTGATTATCATCAATTTTGGTTGAATATGACGGAGTCACCTAGTGCAG | 28100 fluorescence intensity (a.u.) |
| ATTAATCACGCGTTAATGGACCGCTCCGTTTTCCGTGCGACGGAGTCACCTAGTGCAG | 18700 fluorescence intensity (a.u.) |
| TCGAGCAGATCAATCAACCAACGGGTCGAGAGGATTTAGTCGGAGTCACCTAGTGCAG | 4870 fluorescence intensity (a.u.) |
| AAAATAAGTAACTGCCAATTATTAACAGAGCGGCGATCATCGGAGTCACCTAGTGCAG | 10800 fluorescence intensity (a.u.) |
| ACAAACTAAAATTATTTAACATCGAAGGTAGTCTTTGGCACGGAGTCACCTAGTGCAG | 6310 fluorescence intensity (a.u.) |
| TATAAATTTAGTTAAATATATATAAAGAAGTTTGACTTATCGGAGTCACCTAGTGCAG | 9160 fluorescence intensity (a.u.) |
| TATTAATCAATTAATGTTCCATGGAGATACTGAGCTCAGCCGGAGTCACCTAGTGCAG | 18600 fluorescence intensity (a.u.) |
| CAGTTGATTGGCCGACGTTATGATATGGTAGCTGAATTAGCGGAGTCACCTAGTGCAG | 44100 fluorescence intensity (a.u.) |
| ATAAACGTGTTAATTTGCTAATGAACACCGCGCCGATTAACGGAGTCACCTAGTGCAG | 5730 fluorescence intensity (a.u.) |
| CTTCAAATCAAGAGATTTAATTTAAGTCGATCTCAATCCCCGGAGTCACCTAGTGCAG | 18900 fluorescence intensity (a.u.) |
| GCGCCATCCCTAATTGTCAGTTTTCCCATTTTGAGCTTCCCGGAGTCACCTAGTGCAG | 8550 fluorescence intensity (a.u.) |
| TTGAATTTCAAATTGAATTTACTACAAACTAGGAAAATATCGGAGTCACCTAGTGCAG | 5200 fluorescence intensity (a.u.) |
| GGTATCTGCATTAATTAGTAATCACTGCTATGTACTAACTCGGAGTCACCTAGTGCAG | 16100 fluorescence intensity (a.u.) |
| AAAATTTTGGTTGAAATTGAAACAGTGTGATGAAAAGGTTCGGAGTCACCTAGTGCAG | 4000 fluorescence intensity (a.u.) |
| AGCCTAATTAATTCGTCATTAGCATATGTGGGTTATTATACGGAGTCACCTAGTGCAG | 27800 fluorescence intensity (a.u.) |
| AATCCAATTGATAATCAACTATATATATATATTTGCATCTCGGAGTCACCTAGTGCAG | 23500 fluorescence intensity (a.u.) |
| TGCCTTTTAAATTAGACACAGTGAGACCAAGCAGTAGTACCGGAGTCACCTAGTGCAG | 4250 fluorescence intensity (a.u.) |
| TGAAATTGAGGGGTACGATATATGCGTGTGTGTGGCAACGCGGAGTCACCTAGTGCAG | 5800 fluorescence intensity (a.u.) |
| ACTTTAACAATGCCAATTTATTTTGGTACTATAACTGATTCGGAGTCACCTAGTGCAG | 10600 fluorescence intensity (a.u.) |
| CATACTAATTGAATAGAACGAATCGTCCAGCTAAATTGCTCGGAGTCACCTAGTGCAG | 37200 fluorescence intensity (a.u.) |
| GACACGTATGATTTGTGTGGTAGTACATAGCACGCACGCACGGAGTCACCTAGTGCAG | 4130 fluorescence intensity (a.u.) |
